± gives the standard deviation of the averaged measurements. Restriction of a single-cycle SIVsab GFP reporter by TRIM5α v1-loop variants in CRFK cells. Human variants: read share among cells still uninfected after two challenges over input, higher = gained restriction. Rhesus variants: share among infected cells over input, higher = lost restriction. Reporter dose not given per row. No active / inactive call per row; the paper calls a change when both replicates lie above its controls (mean + 2 SD of stop or wild-type variants, or the top frameshift score). Residues outside the varied loop are taken from Swiss-Prot. The paper reads the human single-substitution scores as noise; they and the rhesus combinations repeat poorly (rank correlation 0.3 to 0.4), indel scores repeat only for the top variants, rhesus substitutions well (0.9).
What follows are sequences tested on SIVsab (simian immunodeficiency virus of sabaeus monkeys), single-cycle GFP reporter, in CRFK cells (assay: enrichment among uninfected cells over input (fold); higher = stronger restriction). Settings: library: human / rhesus combinations.
Protocol: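 Pools of CRFK cells expressing variants of the TRIM5α v1 loop were challenged with the single-cycle reporter, sorted by GFP and sequenced; mean of two replicates.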

Sequence	enrichment
MASGILVNVKEEVTCPICLELLTQPLSLDCGHSFCQACLTANHKKSMLDKGESSCPVCRISYQPENIRPNRHVANIVEKLREVKLSPEGQKVDHCARHGEKLLLFCQEDGKVICWLCERSQEHRGHHTFLTEEVAREYQVKLQAALEMLRQKQQEAEELEADIREEKASWKTQIQYDKTNVLADFEQLRDILDWEESNELQNLEKEEEDILKSLTNSETEMVQQTQSLRELISDLEHRLQGSVMELLQGVDGVIKRTENVTLKKPETFPKNQRRVFRAPDLKGMLEVFRELTDVRRYWVDVTVAPNNISCAVISEDKRQVSSPKPQIIYGAPGTRFTFQTLTNFNYCTGILGSQSITSGKHYWEVDVSKKTAWILGVCAGFQPDAMCNIEKNENYQPKYGYWVIGLEEGVKCSAFQDSSFHTPSVPFIVPLSVIICPDRVGVFLDYEACTVSFFNITNHGFLIYKFSHCSFSQPVFPYLNPRKCGVPMTLCSPSS [human TRIM5α, 330-340 = GAPGTRFTFQTLT]	0.268 ± 0.15
MASGILVNVKEEVTCPICLELLTQPLSLDCGHSFCQACLTANHKKSMLDKGESSCPVCRISYQPENIRPNRHVANIVEKLREVKLSPEGQKVDHCARHGEKLLLFCQEDGKVICWLCERSQEHRGHHTFLTEEVAREYQVKLQAALEMLRQKQQEAEELEADIREEKASWKTQIQYDKTNVLADFEQLRDILDWEESNELQNLEKEEEDILKSLTNSETEMVQQTQSLRELISDLEHRLQGSVMELLQGVDGVIKRTENVTLKKPETFPKNQRRVFRAPDLKGMLEVFRELTDVRRYWVDVTVAPNNISCAVISEDKRQVSSPKPQIIYQAPGTRFTFPSLTNFNYCTGILGSQSITSGKHYWEVDVSKKTAWILGVCAGFQPDAMCNIEKNENYQPKYGYWVIGLEEGVKCSAFQDSSFHTPSVPFIVPLSVIICPDRVGVFLDYEACTVSFFNITNHGFLIYKFSHCSFSQPVFPYLNPRKCGVPMTLCSPSS [human TRIM5α, 330-340 = QAPGTRFTFPSLT]	2.86 ± 1.2
MASGILVNVKEEVTCPICLELLTQPLSLDCGHSFCQACLTANHKKSMLDKGESSCPVCRISYQPENIRPNRHVANIVEKLREVKLSPEGQKVDHCARHGEKLLLFCQEDGKVICWLCERSQEHRGHHTFLTEEVAREYQVKLQAALEMLRQKQQEAEELEADIREEKASWKTQIQYDKTNVLADFEQLRDILDWEESNELQNLEKEEEDILKSLTNSETEMVQQTQSLRELISDLEHRLQGSVMELLQGVDGVIKRTENVTLKKPETFPKNQRRVFRAPDLKGMLEVFRELTDVRRYWVDVTVAPNNISCAVISEDKRQVSSPKPQIIYQARGTLYTFPTLVNFNYCTGILGSQSITSGKHYWEVDVSKKTAWILGVCAGFQPDAMCNIEKNENYQPKYGYWVIGLEEGVKCSAFQDSSFHTPSVPFIVPLSVIICPDRVGVFLDYEACTVSFFNITNHGFLIYKFSHCSFSQPVFPYLNPRKCGVPMTLCSPSS [human TRIM5α, 330-340 = QARGTLYTFPTLV]	0.141 ± 0.2
MASGILVNVKEEVTCPICLELLTQPLSLDCGHSFCQACLTANHKKSMLDKGESSCPVCRISYQPENIRPNRHVANIVEKLREVKLSPEGQKVDHCARHGEKLLLFCQEDGKVICWLCERSQEHRGHHTFLTEEVAREYQVKLQAALEMLRQKQQEAEELEADIREEKASWKTQIQYDKTNVLADFEQLRDILDWEESNELQNLEKEEEDILKSLTNSETEMVQQTQSLRELISDLEHRLQGSVMELLQGVDGVIKRTENVTLKKPETFPKNQRRVFRAPDLKGMLEVFRELTDVRRYWVDVTVAPNNISCAVISEDKRQVSSPKPQIIYQAPGTLYTFQTLTNFNYCTGILGSQSITSGKHYWEVDVSKKTAWILGVCAGFQPDAMCNIEKNENYQPKYGYWVIGLEEGVKCSAFQDSSFHTPSVPFIVPLSVIICPDRVGVFLDYEACTVSFFNITNHGFLIYKFSHCSFSQPVFPYLNPRKCGVPMTLCSPSS [human TRIM5α, 330-340 = QAPGTLYTFQTLT]	0.346 ± 0.35
MASGILVNVKEEVTCPICLELLTQPLSLDCGHSFCQACLTANHKKSMLDKGESSCPVCRISYQPENIRPNRHVANIVEKLREVKLSPEGQKVDHCARHGEKLLLFCQEDGKVICWLCERSQEHRGHHTFLTEEVAREYQVKLQAALEMLRQKQQEAEELEADIREEKASWKTQIQYDKTNVLADFEQLRDILDWEESNELQNLEKEEEDILKSLTNSETEMVQQTQSLRELISDLEHRLQGSVMELLQGVDGVIKRTENVTLKKPETFPKNQRRVFRAPDLKGMLEVFRELTDVRRYWVDVTVAPNNISCAVISEDKRQVSSPKPQIIYQAPGTLYTFQSLTNFNYCTGILGSQSITSGKHYWEVDVSKKTAWILGVCAGFQPDAMCNIEKNENYQPKYGYWVIGLEEGVKCSAFQDSSFHTPSVPFIVPLSVIICPDRVGVFLDYEACTVSFFNITNHGFLIYKFSHCSFSQPVFPYLNPRKCGVPMTLCSPSS [human TRIM5α, 330-340 = QAPGTLYTFQSLT]	0.268 ± 0.036
MASGILVNVKEEVTCPICLELLTQPLSLDCGHSFCQACLTANHKKSMLDKGESSCPVCRISYQPENIRPNRHVANIVEKLREVKLSPEGQKVDHCARHGEKLLLFCQEDGKVICWLCERSQEHRGHHTFLTEEVAREYQVKLQAALEMLRQKQQEAEELEADIREEKASWKTQIQYDKTNVLADFEQLRDILDWEESNELQNLEKEEEDILKSLTNSETEMVQQTQSLRELISDLEHRLQGSVMELLQGVDGVIKRTENVTLKKPETFPKNQRRVFRAPDLKGMLEVFRELTDVRRYWVDVTVAPNNISCAVISEDKRQVSSPKPQIIYQAPGTLFTFQSFTNFNYCTGILGSQSITSGKHYWEVDVSKKTAWILGVCAGFQPDAMCNIEKNENYQPKYGYWVIGLEEGVKCSAFQDSSFHTPSVPFIVPLSVIICPDRVGVFLDYEACTVSFFNITNHGFLIYKFSHCSFSQPVFPYLNPRKCGVPMTLCSPSS [human TRIM5α, 330-340 = QAPGTLFTFQSFT]	3.67 ± 0.0081
MASGILVNVKEEVTCPICLELLTQPLSLDCGHSFCQACLTANHKKSMLDKGESSCPVCRISYQPENIRPNRHVANIVEKLREVKLSPEGQKVDHCARHGEKLLLFCQEDGKVICWLCERSQEHRGHHTFLTEEVAREYQVKLQAALEMLRQKQQEAEELEADIREEKASWKTQIQYDKTNVLADFEQLRDILDWEESNELQNLEKEEEDILKSLTNSETEMVQQTQSLRELISDLEHRLQGSVMELLQGVDGVIKRTENVTLKKPETFPKNQRRVFRAPDLKGMLEVFRELTDVRRYWVDVTVAPNNISCAVISEDKRQVSSPKPQIIYGARGTLYTFQSFVNFNYCTGILGSQSITSGKHYWEVDVSKKTAWILGVCAGFQPDAMCNIEKNENYQPKYGYWVIGLEEGVKCSAFQDSSFHTPSVPFIVPLSVIICPDRVGVFLDYEACTVSFFNITNHGFLIYKFSHCSFSQPVFPYLNPRKCGVPMTLCSPSS [human TRIM5α, 330-340 = GARGTLYTFQSFV]	0.154 ± 0.014

Same assay, conditions: library: insertions and deletions

Sequence	enrichment
MASGILVNVKEEVTCPICLELLTQPLSLDCGHSFCQACLTANHKKSMLDKGESSCPVCRISYQPENIRPNRHVANIVEKLREVKLSPEGQKVDHCARHGEKLLLFCQEDGKVICWLCERSQEHRGHHTFLTEEVAREYQVKLQAALEMLRQKQQEAEELEADIREEKASWKTQIQYDKTNVLADFEQLRDILDWEESNELQNLEKEEEDILKSLTNSETEMVQQTQSLRELISDLEHRLQGSVMELLQGVDGVIKRTENVTLKKPETFPKNQRRVFRAPDLKGMLEVFRELTDVRRYWVDVTVAPNNISCAVISEDKRQVSSPIIYGARGTRYQTFVNFNYCTGILGSQSITSGKHYWEVDVSKKTAWILGVCAGFQPDAMCNIEKNENYQPKYGYWVIGLEEGVKCSAFQDSSFHTPSVPFIVPLSVIICPDRVGVFLDYEACTVSFFNITNHGFLIYKFSHCSFSQPVFPYLNPRKCGVPMTLCSPSS [human TRIM5α, 3-codon deletion at 324]	0.122 ± 0.037
MASGILVNVKEEVTCPICLELLTQPLSLDCGHSFCQACLTANHKKSMLDKGESSCPVCRISYQPENIRPNRHVANIVEKLREVKLSPEGQKVDHCARHGEKLLLFCQEDGKVICWLCERSQEHRGHHTFLTEEVAREYQVKLQAALEMLRQKQQEAEELEADIREEKASWKTQIQYDKTNVLADFEQLRDILDWEESNELQNLEKEEEDILKSLTNSETEMVQQTQSLRELISDLEHRLQGSVMELLQGVDGVIKRTENVTLKKPETFPKNQRRVFRAPDLKGMLEVFRELTDVRRYWVDVTVAPNNISCAVISEDKRQVSSPKPQIIYGGARGTRYQTFVNFNYCTGILGSQSITSGKHYWEVDVSKKTAWILGVCAGFQPDAMCNIEKNENYQPKYGYWVIGLEEGVKCSAFQDSSFHTPSVPFIVPLSVIICPDRVGVFLDYEACTVSFFNITNHGFLIYKFSHCSFSQPVFPYLNPRKCGVPMTLCSPSS [human TRIM5α, 1-codon duplication at 330]	0.669 ± 0.48
MASGILVNVKEEVTCPICLELLTQPLSLDCGHSFCQACLTANHKKSMLDKGESSCPVCRISYQPENIRPNRHVANIVEKLREVKLSPEGQKVDHCARHGEKLLLFCQEDGKVICWLCERSQEHRGHHTFLTEEVAREYQVKLQAALEMLRQKQQEAEELEADIREEKASWKTQIQYDKTNVLADFEQLRDILDWEESNELQNLEKEEEDILKSLTNSETEMVQQTQSLRELISDLEHRLQGSVMELLQGVDGVIKRTENVTLKKPETFPKNQRRVFRAPDLKGMLEVFRELTDVRRYWVDVTVAPNNISCAVISEDKRQVSSPKPQIIYGARGTRYQTFVNFNYCTGILGSCTGILGSQSITSGKHYWEVDVSKKTAWILGVCAGFQPDAMCNIEKNENYQPKYGYWVIGLEEGVKCSAFQDSSFHTPSVPFIVPLSVIICPDRVGVFLDYEACTVSFFNITNHGFLIYKFSHCSFSQPVFPYLNPRKCGVPMTLCSPSS [human TRIM5α, 7-codon duplication at 345]	0.313 ± 0.44
MASGILVNVKEEVTCPICLELLTQPLSLDCGHSFCQACLTANHKKSMLDKGESSCPVCRISYQPENIRPNRHVANIVEKLREVKLSPEGQKVDHCARHGEKLLLFCQEDGKVICWLCERSQEHRGHHTFLTEEVAREYQVKLQAALEMLRQKQQEAEELEADIREEKASWKTQIQYDKTNVLADFEQLRDILDWEESNELQNLEKEEEDILKSLTNSETEMVQQTQSLRELISDLEHRLQGSVMELLQGVDGVIKRTENVTLKKPETFPKNQRRVFRAPDLKGMLEVFRELTDVRRYWVDVTVAPNNISCAVISEDKRQVSSPKPQIIYGQTFVNFNYCTGILGSQSITSGKHYWEVDVSKKTAWILGVCAGFQPDAMCNIEKNENYQPKYGYWVIGLEEGVKCSAFQDSSFHTPSVPFIVPLSVIICPDRVGVFLDYEACTVSFFNITNHGFLIYKFSHCSFSQPVFPYLNPRKCGVPMTLCSPSS [human TRIM5α, 6-codon deletion at 331]	1.28 ± 1.5
MASGILVNVKEEVTCPICLELLTQPLSLDCGHSFCQACLTANHKKSMLDKGESSCPVCRISYQPENIRPNRHVANIVEKLREVKLSPEGQKVDHCARHGEKLLLFCQEDGKVICWLCERSQEHRGHHTFLTEEVAREYQVKLQAALEMLRQKQQEAEELEADIREEKASWKTQIQYDKTNVLADFEQLRDILDWEESNELQNLEKEEEDILKSLTNSETEMVQQTQSLRELISDLEHRLQGSVMELLQGVDGVIKRTENVTLKKPETFPKNQRRVFRAPDLKGMLEVFRELTDVRRYWVDVTVAPNNISCAVISEDKRQVSSPKPQIIYGARGTRYQTFVNFNYCTGILGNYCTGILGSQSITSGKHYWEVDVSKKTAWILGVCAGFQPDAMCNIEKNENYQPKYGYWVIGLEEGVKCSAFQDSSFHTPSVPFIVPLSVIICPDRVGVFLDYEACTVSFFNITNHGFLIYKFSHCSFSQPVFPYLNPRKCGVPMTLCSPSS [human TRIM5α, 8-codon duplication at 343]	0.443 ± 0.41
